Assay results from PubChem BioAssay AID504845 (National Center for Advancing Translational Sciences (NCATS), 2011).
Screen size: about 390,000 compounds; about 150 (0.038%) were called active. The shares of active, inactive and inconclusive entries below differ from those in the screen. Calls come from the whole dose curve; as a rule, active = well fitted inhibition curve with a large enough effect; inconclusive = small, poorly fitted or top-dose-only effect; inactive = no such curve, though single readings can be large or run the other way. Potencies of inconclusive entries are doubtful fits and often do not repeat.

biological target: Regulator of G-protein signaling 4 (Homo sapiens) (UniProt P49798); assay: Inhibitors of Regulator of G Protein Signaling (RGS) 4: qHTS; details: Transcreener GDP fluorescence polarization, RGS4-accelerated GTP hydrolysis; series mostly up to 114 µM; activity change, negative = inhibition: at the top concentration; note: nearly all actives have a fitted effect of over 75% in size
Chain of UniProt P49798 (P49798 whole entry, looked up): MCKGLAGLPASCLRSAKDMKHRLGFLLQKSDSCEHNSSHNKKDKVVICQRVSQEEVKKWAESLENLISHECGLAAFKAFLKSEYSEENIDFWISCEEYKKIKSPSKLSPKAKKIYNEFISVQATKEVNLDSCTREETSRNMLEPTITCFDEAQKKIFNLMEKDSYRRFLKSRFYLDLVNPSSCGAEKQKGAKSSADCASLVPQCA
In short: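 MLSMR compounds (23 nl, pin-transferred) preincubated 10 min at room temperature with a 500nM (2x) first reagent, then RGS4 at 900nM (2x) plus Transcreener GDP mix added; fluorescence polarization (620/688 nm) read before and after 90 min at 30 °C.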
% is set by controls: 0 for no effect and ±100 for the full control effect; potency is the fitted concentration of half-maximal effect; tags give direction and shape of the fitted curve.

Compound	Potency	activity change, negative = inhibition
CSC1=NSC2=NC(=O)/C(=C\c3coc4ccccc4c3=O)C(=N)N12	inconclusive: 50.1 µM [inhibitor, partial curve, poor fit]	
NC(=O)c1ccc(NCc2ccco2)c([N+](=O)[O-])c1	inconclusive: 89.1 µM [inhibitor, single point]	
COc1cc(/C=C/C(=O)c2ccc3c(c2)OCO3)cc(Cl)c1O	inconclusive: 79.4 µM [inhibitor, partial curve, poor fit]	
Cc1ccccc1C(=O)OC1OC(=O)C(Cl)=C1Nc1ccccc1 (stereo unspecified)	inconclusive: 100 µM [inhibitor, partial curve, poor fit]	
CCN(CC)c1ccc(/C=C/c2cc(-c3ccccc3)c3ccccc3n2)cc1	inconclusive: 35.5 µM [inhibitor, full curve, poor fit]	
O=C1CN(Cc2ccccc2)S(=O)(=O)c2ccccc21	inconclusive: 50.1 µM [inhibitor, partial curve, poor fit]	
O=C(Nc1ccc(N2CCOCC2)c(S(=O)(=O)Nc2ccc(Cl)cc2)c1)c1cnccn1	inconclusive: 28.2 µM [inhibitor, full curve, poor fit]	
CC1CCCN(S(=O)(=O)c2ccc(C(=O)Nc3sc4c(c3C(N)=O)CCN(C)C4)cc2)C1 (stereo unspecified)	inconclusive: 50.1 µM [inhibitor, partial curve, poor fit]	
COc1ccc(S(=O)(=O)Nc2ccc3c(c2)CCC3)cc1	inconclusive: 35.5 µM [inhibitor, full curve, poor fit]	
Cc1ccc(S(=O)(=O)N2CCN(c3cnn(C)c(=O)c3Cl)CC2)cc1	inconclusive: 70.8 µM [inhibitor, single point]	
CN1C(=O)c2cccc3c(S(N)(=O)=O)ccc1c23		inactive: 2.01%
CC(=O)Nc1ccc(C2CC(c3ccc(Cl)cc3)=NN2c2ccccc2)cc1 (stereo unspecified)		inactive: 1.36%
O=C1C(Cl)=C(N2CCOCC2)C(=O)N1c1cccc(Cl)c1	inconclusive: 44.7 µM [inhibitor, partial curve, poor fit]	
FC(F)(F)c1cnc(NNC(=S)Nc2ccccc2Cl)c(Cl)c1		inactive: -28.4%
C=CCN1C=C/C(=C\C=C(C#N)C#N)c2ccccc21	inconclusive: 89.1 µM [inhibitor, partial curve, poor fit]	
NC(=O)SCC(=O)Nc1cccc(Cl)c1	inconclusive: 28.2 µM [inhibitor, full curve, poor fit]	
CCN(CC)C(=O)CSc1nc2sc3c(c2c(=O)n1CCCOC)CCC3	inconclusive: 56.2 µM [inhibitor, partial curve, poor fit]	
CC(C)(C)c1cc(C(=O)CCN2CCOCC2)cc(C(C)(C)C)c1O	inconclusive: 17.8 µM [inhibitor, full curve, poor fit]	
O=c1[nH]c(=O)c2nc3c4ccccc4c4ccccc4c3nc2[nH]1	inconclusive: 79.4 µM [inhibitor, partial curve, poor fit]	
Cc1ccc(-c2nnn(CC(=O)Nc3ccccc3-c3ccccc3)n2)c(-n2cnnn2)c1	inconclusive: 79.4 µM [inhibitor, single point]	
Oc1c(Br)cc(Br)cc1CNc1cccc2cccnc12	inconclusive: 44.7 µM [inhibitor, partial curve, poor fit]	

Compound	Potency	activity change, negative = inhibition
O=C(CSc1n[nH]c(=O)n1Cc1ccco1)Nc1ccccc1		inactive: -1.61%
COc1ccccc1C(=O)NC(C)C(c1cccs1)N1CCN(C)CC1 (stereo unspecified)		inactive: 17.1%
Cc1csc(NC(=O)c2cc3c(C)nn(Cc4ccccc4Cl)c3s2)n1	inconclusive: 89.1 µM [inhibitor, single point]	
C/C(=N/NC(=O)CN1CCN(S(=O)(=O)c2ccc(C)cc2)CC1)c1cccc(O)c1		inactive: 42.6% [at 11.4 µM]
Cc1ccc(-c2nc3ncccn3c2Nc2ccccc2C)o1	inconclusive: 79.4 µM [inhibitor, partial curve, poor fit]	
Cc1c(C(=O)O)sc(S(=O)(=O)N2CCN(C(=O)Cc3ccccc3Cl)CC2)c1C(=O)O	inconclusive: 89.1 µM [inhibitor, single point]	
COc1ccc(C(=O)Nc2ccc(NC(=O)c3cccs3)cc2)cc1Cl	inconclusive: 50.1 µM [inhibitor, partial curve, poor fit]	
COC(=O)c1sc2cc(=O)n(-c3cccc(C(F)(F)F)c3)nc2c1O	inconclusive: 89.1 µM [inhibitor, partial curve, poor fit]	
Cc1[nH][nH]c(=O)c1C(c1cc(Br)ccc1O)c1c(C)[nH][nH]c1=O	inconclusive: 35.5 µM [inhibitor, full curve, poor fit]	
O=C(NC1CC1)c1sc2ccccc2c1Cl		inactive: 13%
COc1ccc(-c2nn(C)c3sc(C(=O)Nc4cc(OC)c(OC)c(OC)c4)cc23)cc1OC	inconclusive: 17.8 µM [inhibitor, partial curve, poor fit]	
O=C(O)CSc1nnc(CNc2ccc(Cl)cc2)n1Cc1ccccc1	inconclusive: 89.1 µM [inhibitor, partial curve, poor fit]	
Cc1nc(N2CCCCC2)sc1C(=O)c1ccc(SCCO)c([N+](=O)[O-])c1	inconclusive: 31.6 µM [inhibitor, full curve, poor fit]	
COc1ccc(C(=O)NC(=S)NNC(=O)c2cnccn2)cc1		inactive: -37.1%
O=C1OC(c2ccccc2)/C(=C(/O)c2ccc(Cl)cc2)C1=O (stereo unspecified)		inactive: -7.19%
CCOC(=O)C1(CC2CCCCO2)CCN(C(=O)Nc2cccc(SC)c2)CC1 (stereo unspecified)	inconclusive: 79.4 µM [inhibitor, partial curve, poor fit]	
CC#CC[N+](C)(C)CCCCCCCC		inactive: 7.14%
O=C(COc1cccc2cccnc12)N/N=C/c1cccn1-c1ccc(F)cc1		inactive: -7.71%
CCOC(=O)C1=CN(Cc2ccco2)S(=O)(=O)N(C)C1c1ccc2ccccc2c1 (stereo unspecified)		inactive: -39.9%
COc1cc(C(C2C(=O)CC(C)(C)CC2=O)C2C(=O)CC(C)(C)CC2=O)ccc1O	inconclusive: 17.8 µM [inhibitor, full curve, poor fit]	
